# Laboratory results: the supplement of paper PMC8728848
# This is one part of the list.
# B1: Siglec-7-SA-PE-180 (Homo sapiens), Q9Y286 (protein)
# chain: MLLLLLLPLLWGRERVEGQKSNRKDYSLTMQSSVTVQEGMCVHVRCSFSYPVDSQTDSDPVHGYWFRAGNDISWKAPVATNNPAWAVQEETRDRFHLLGDPQTKNCTLSIRDARMSDAGRYFFRMEKGNIKWNYKYDQLSVNVTALTHRPNILIPGTLESGCFQNLTCSVPWACEQGTPPMISWMGTSVSPLHPSTTRSSVLTLIPQPQHHGTSLTCQVTLPGAGVTTNRTIQLNVSYPPQNLTVTVFQGEGTASTALGNSSSLSVLEGQSLRLVCAVDSNPPARLSWTWRSLTLYPSQPSNPLVLELQVHLGDEGEFTCRAQNSLGSQHVSLNLSLQQEYTGKMRPVSGVLLGAVGGAGATALVFLSFCVIFIVVRSCRKKSARPAADVGDIGMKDANTIRGSASQGNLTESWADDNPRHHGLAAHSSGEEREIQYAPLSFHKGEPQDLSGQEATNNEYSEIKIPK
# How the values were obtained:
# Assay in all cases: glycan array binding signal (z-score within array); higher = stronger binding
# Conditions in all cases: glycan notation: IUPAC condensed, linker removed
# [1] = target: Fuc(a1-2)Gal(b1-4)[Fuc(a1-3)]GlcNAc(b1-3)Gal(b1-4)[Fuc(a1-3)]GlcNAc
# How it was run: (§1)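 Glycan array binding is given as a within-array Z-score, which can be read as non-binding when negative. The arrays, 3228 of them, came from the Consortium for Functional Glycomics database and were retained only where the protein sequence was available. Z-scores were averaged across arrays of the same protein sequence at different concentrations or buffers and across linkers.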
# [2] = target: Fuc(a1-2)Gal(b1-4)[Fuc(a1-3)]GlcNAc(b1-3)Gal(b1-4)[Fuc(a1-3)]GlcNAc(b1-3)Gal(b1-4)[Fuc(a1-3)]GlcNAc
# How it was run: as §1
# [3] = target: Fuc(a1-2)Gal(b1-4)[Fuc(a1-3)]GlcNAc(b1-3)GalNAc
# How it was run: as §1
# [4] = target: Fuc(a1-2)Gal(b1-4)[Fuc(a1-3)]GlcNAc(b1-3)[Neu5Ac(a2-6)Gal(b1-4)GlcNAc(b1-6)]Gal(b1-4)Glc
# How it was run: as §1
# [5] = target: Fuc(a1-2)Gal3S(b1-4)GlcNAc
# How it was run: as §1
# [6] = target: Fuc(a1-2)Gal6S(b1-3)GlcNAc
# How it was run: as §1
# [7] = target: Fuc(a1-2)Gal6S(b1-3)GlcNAc6S
# How it was run: as §1
# Fuc(a1-2)Gal6S(b1-4)Glc = target: Fuc(a1-2)Gal6S(b1-4)Glc
# How it was run: as §1
# [8] = target: Fuc(a1-2)Gal6S(b1-4)Glc6S
# How it was run: as §1
# [9] = target: Fuc(a1-2)Gal6S(b1-4)GlcNAc
# How it was run: as §1
# Fuc(a1-2)[Gal(a1-3)]Gal = target: Fuc(a1-2)[Gal(a1-3)]Gal
# How it was run: as §1
# [10] = target: Fuc(a1-2)[Gal(a1-3)]Gal(b1-3)GalNAc
# How it was run: as §1
# [11] = target: Fuc(a1-2)[Gal(a1-3)]Gal(b1-3)GalNAc(b1-3)Gal(a1-4)Gal(b1-4)Glc
# How it was run: as §1
# [12] = target: Fuc(a1-2)[Gal(a1-3)]Gal(b1-3)GlcNAc
# How it was run: as §1
# [13] = target: Fuc(a1-2)[Gal(a1-3)]Gal(b1-3)GlcNAc(b1-2)Man(a1-3)[Fuc(a1-2)[Gal(a1-3)]Gal(b1-3)GlcNAc(b1-2)Man(a1-6)]Man(b1-4)GlcNAc(b1-4)GlcNAc
# How it was run: as §1
# [14] = target: Fuc(a1-2)[Gal(a1-3)]Gal(b1-3)GlcNAc(b1-2)Man(a1-3)[Fuc(a1-2)[Gal(a1-3)]Gal(b1-3)GlcNAc(b1-2)Man(a1-6)]Man(b1-4)GlcNAc(b1-4)[Fuc(a1-6)]GlcNAc
# How it was run: as §1
# [15] = target: Fuc(a1-2)[Gal(a1-3)]Gal(b1-3)GlcNAc(b1-3)GalNAc
# How it was run: as §1
# [16] = target: Fuc(a1-2)[Gal(a1-3)]Gal(b1-3)GlcNAc(b1-6)GalNAc
# How it was run: as §1
# [17] = target: Fuc(a1-2)[Gal(a1-3)]Gal(b1-4)Glc
# How it was run: as §1
# [18] = target: Fuc(a1-2)[Gal(a1-3)]Gal(b1-4)GlcNAc
# How it was run: as §1
# [19] = target: Fuc(a1-2)[Gal(a1-3)]Gal(b1-4)GlcNAc(b1-2)Man
# How it was run: as §1
# [20] = target: Fuc(a1-2)[Gal(a1-3)]Gal(b1-4)GlcNAc(b1-2)Man(a1-3)[Fuc(a1-2)[Gal(a1-3)]Gal(b1-4)GlcNAc(b1-2)Man(a1-6)]Man(b1-4)GlcNAc(b1-4)GlcNAc
# How it was run: as §1
# [21] = target: Fuc(a1-2)[Gal(a1-3)]Gal(b1-4)GlcNAc(b1-2)Man(a1-3)[Fuc(a1-2)[Gal(a1-3)]Gal(b1-4)GlcNAc(b1-2)Man(a1-6)]Man(b1-4)GlcNAc(b1-4)[Fuc(a1-6)]GlcNAc
# How it was run: as §1
# [22] = target: Fuc(a1-2)[Gal(a1-3)]Gal(b1-4)GlcNAc(b1-3)GalNAc
# How it was run: as §1
# [23] = target: Fuc(a1-2)[Gal(a1-3)]Gal(b1-4)GlcNAc(b1-3)[Fuc(a1-2)[Gal(a1-3)]Gal(b1-4)GlcNAc(b1-6)]GalNAc
# How it was run: as §1
# [24] = target: Fuc(a1-2)[Gal(a1-3)]Gal(b1-4)GlcNAc(b1-6)GalNAc
# How it was run: as §1
# [25] = target: Fuc(a1-2)[Gal(a1-3)]Gal(b1-4)[Fuc(a1-3)]Glc
# How it was run: as §1
# [26] = target: Fuc(a1-2)[Gal(a1-3)]Gal(b1-4)[Fuc(a1-3)]GlcNAc
# How it was run: as §1
# [27] = target: Fuc(a1-2)[Gal(a1-3)]Gal(b1-4)[Fuc(a1-3)]GlcNAc(b1-3)GalNAc
# How it was run: as §1
# [28] = target: Fuc(a1-2)[Gal(a1-4)]Gal(b1-4)GlcNAc
# How it was run: as §1
# [29] = target: Fuc(a1-2)[GalNAc(a1-3)]Gal
# How it was run: as §1
# [30] = target: Fuc(a1-2)[GalNAc(a1-3)]Gal(b1-3)GalNAc(a1-3)[Fuc(a1-2)]Gal(b1-4)GlcNAc
# How it was run: as §1
# [31] = target: Fuc(a1-2)[GalNAc(a1-3)]Gal(b1-3)GalNAc(b1-3)Gal(a1-4)Gal(b1-4)Glc
# How it was run: as §1
# [32] = target: Fuc(a1-2)[GalNAc(a1-3)]Gal(b1-3)GlcNAc
# How it was run: as §1
# [33] = target: Fuc(a1-2)[GalNAc(a1-3)]Gal(b1-3)GlcNAc(b1-2)Man(a1-3)[Fuc(a1-2)[GalNAc(a1-3)]Gal(b1-3)GlcNAc(b1-2)Man(a1-6)]Man(b1-4)GlcNAc(b1-4)GlcNAc
# How it was run: as §1
# [34] = target: Fuc(a1-2)[GalNAc(a1-3)]Gal(b1-3)GlcNAc(b1-2)Man(a1-3)[Fuc(a1-2)[GalNAc(a1-3)]Gal(b1-3)GlcNAc(b1-2)Man(a1-6)]Man(b1-4)GlcNAc(b1-4)[Fuc(a1-6)]GlcNAc
# How it was run: as §1
# [35] = target: Fuc(a1-2)[GalNAc(a1-3)]Gal(b1-3)GlcNAc(b1-3)GalNAc
# How it was run: as §1
# [36] = target: Fuc(a1-2)[GalNAc(a1-3)]Gal(b1-3)GlcNAc(b1-6)GalNAc
# How it was run: as §1
# [37] = target: Fuc(a1-2)[GalNAc(a1-3)]Gal(b1-4)Glc
# How it was run: as §1
# [38] = target: Fuc(a1-2)[GalNAc(a1-3)]Gal(b1-4)GlcNAc
# How it was run: as §1
# [39] = target: Fuc(a1-2)[GalNAc(a1-3)]Gal(b1-4)GlcNAc(b1-2)Man
# How it was run: as §1
# [40] = target: Fuc(a1-2)[GalNAc(a1-3)]Gal(b1-4)GlcNAc(b1-2)Man(a1-3)[Fuc(a1-2)[GalNAc(a1-3)]Gal(b1-4)GlcNAc(b1-2)Man(a1-6)]Man(b1-4)GlcNAc(b1-4)GlcNAc
# How it was run: as §1
# [41] = target: Fuc(a1-2)[GalNAc(a1-3)]Gal(b1-4)GlcNAc(b1-2)Man(a1-3)[Fuc(a1-2)[GalNAc(a1-3)]Gal(b1-4)GlcNAc(b1-2)Man(a1-6)]Man(b1-4)GlcNAc(b1-4)[Fuc(a1-6)]GlcNAc
# How it was run: as §1
# [42] = target: Fuc(a1-2)[GalNAc(a1-3)]Gal(b1-4)GlcNAc(b1-3)Gal(b1-4)GlcNAc
# How it was run: as §1
# [43] = target: Fuc(a1-2)[GalNAc(a1-3)]Gal(b1-4)GlcNAc(b1-3)Gal(b1-4)GlcNAc(b1-3)Gal(b1-4)GlcNAc
# How it was run: as §1
binder,measurement,setting,value
B1,glycan array binding signal (z-score),[1],-0.402
same,glycan array binding signal (z-score),[2],-0.027
same,glycan array binding signal (z-score),[3],-0.025
same,glycan array binding signal (z-score),[4],-0.214
same,glycan array binding signal (z-score),[5],-0.113
same,glycan array binding signal (z-score),[6],0.295
same,glycan array binding signal (z-score),[7],2.66
same,glycan array binding signal (z-score),Fuc(a1-2)Gal6S(b1-4)Glc,-0.16
same,glycan array binding signal (z-score),[8],0.217
same,glycan array binding signal (z-score),[9],-0.178
same,glycan array binding signal (z-score),Fuc(a1-2)[Gal(a1-3)]Gal,0.008
same,glycan array binding signal (z-score),[10],-0.212
same,glycan array binding signal (z-score),[11],-0.386
same,glycan array binding signal (z-score),[12],0.083
same,glycan array binding signal (z-score),[13],-0.268
same,glycan array binding signal (z-score),[14],-0.12
same,glycan array binding signal (z-score),[15],-0.11
same,glycan array binding signal (z-score),[16],-0.434
same,glycan array binding signal (z-score),[17],0.002
same,glycan array binding signal (z-score),[18],-0.231
same,glycan array binding signal (z-score),[19],-0.341
same,glycan array binding signal (z-score),[20],-0.035
same,glycan array binding signal (z-score),[21],-0.421
same,glycan array binding signal (z-score),[22],-0.394
same,glycan array binding signal (z-score),[23],0.667
same,glycan array binding signal (z-score),[24],-0.245
same,glycan array binding signal (z-score),[25],-0.264
same,glycan array binding signal (z-score),[26],-0.326
same,glycan array binding signal (z-score),[27],-0.351
same,glycan array binding signal (z-score),[28],-0.266
same,glycan array binding signal (z-score),[29],-0.204
same,glycan array binding signal (z-score),[30],-0.433
same,glycan array binding signal (z-score),[31],-0.597
same,glycan array binding signal (z-score),[32],-0.313
same,glycan array binding signal (z-score),[33],-0.212
same,glycan array binding signal (z-score),[34],-0.305
same,glycan array binding signal (z-score),[35],-0.057
same,glycan array binding signal (z-score),[36],-0.099
same,glycan array binding signal (z-score),[37],-0.52
same,glycan array binding signal (z-score),[38],-0.265
same,glycan array binding signal (z-score),[39],-0.374
same,glycan array binding signal (z-score),[40],-0.267
same,glycan array binding signal (z-score),[41],-0.301
same,glycan array binding signal (z-score),[42],0.132
same,glycan array binding signal (z-score),[43],-0.288
